About 290 (0.32%) of roughly 91,000 compounds were called active. Inconclusive means that the source gave no clear call. Such entries were picked first, then a sample of the others. The call rests on the fitted dose curve; in most records, active means well fitted inhibition curve with a large enough effect; inconclusive means small, poorly fitted or top-dose-only effect; inactive means no such curve, though single readings can be large or run the other way. A potency beside an inconclusive call is a rough fit, not a confirmed value.
Biological target: Single-stranded DNA cytosine deaminase (Homo sapiens) (UniProt Q9GZX7)
Chain of UniProt Q9GZX7 (Q9GZX7 whole entry, looked up): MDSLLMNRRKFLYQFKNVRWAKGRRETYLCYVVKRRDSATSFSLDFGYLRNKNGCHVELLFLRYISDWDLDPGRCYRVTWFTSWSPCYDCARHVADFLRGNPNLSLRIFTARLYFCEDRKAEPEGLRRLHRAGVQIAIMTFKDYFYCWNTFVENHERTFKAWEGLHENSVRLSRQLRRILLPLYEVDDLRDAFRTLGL
Assay: Primary qHTS assay for inhibitors of Activation Induced Cytidine Deaminase (AID): AID signal; further: nearly all actives have a fitted effect of over 25% in size
Details: AID deamination FRET fluorescence, UDG-coupled, 4 h; activity change, negative = inhibition: at 115 µM (top of the series)
On the % scale 0 is the no-effect control and ±100 the full control effect; potency means the concentration at half of the fitted maximal effect; tags describe the fitted curve by direction and shape.

Compound | activity change, negative = inhibition | Potency
O=C(/C(Br)=C/Nc1ccc(Cl)c(Cl)c1)C(F)(F)F | inactive: -6.71% | 
Cc1cccc(COC(=O)C2=NN(C3CCS(=O)(=O)C3)C(=O)CC2)c1 (configuration not stated) | inactive: -4.13% | 
Cc1nn(C)c2c1c(C(F)(F)F)cc(=O)n2CC(=O)Nc1ccc(F)cc1F | inactive: 6.99% | 
O=C(NNC(=S)NC(=O)c1ccc(F)cc1)c1ccc(Cl)cc1 | inactive: -2.95% | 
CC(C)Oc1ccc(C(=O)NCCc2csc(-c3cccc(F)c3)n2)cc1 |  | active: 44.7 µM
COC(=O)c1cc2sccc2n1Cc1c(C)cc(C)cc1C |  | inconclusive: 39.8 µM [inhibitor, single point]
CCc1ccccc1N1C(=O)N(Cc2cc(=O)n3ccccc3n2)c2ccccc2S1(=O)=O |  | inconclusive: 39.8 µM [inhibitor, single point]
O=C(NCc1ccccc1)c1c2c(nc3ccccc13)C(=O)N(C1CCCCC1)C2 |  | inconclusive: 14.1 µM [inhibitor, full curve, poor fit]
CCN(Cc1ccccc1)C(=O)Cn1c(=O)cc(C)c2c(C)nn(-c3cccc(F)c3)c21 |  | inconclusive: 31.6 µM [inhibitor, full curve]
Cc1cc(OC(C)C(=O)N(Cc2ccco2)Cc2ccco2)cc(C)c1Cl (configuration not stated) |  | inconclusive: 50.1 µM [inhibitor, partial curve, poor fit]
C[C@H](NC(=O)OC(C)(C)C)c1nnc(SCc2ccc(Cl)cc2Cl)o1 | inactive: -7.8% | 
CC(C)c1ccc(NC(=O)c2cc(S(=O)(=O)NCCc3ccccc3)ccc2F)cc1 |  | inconclusive: 39.8 µM [inhibitor, single point]
COc1ccc(NC(=O)CN2C(=O)C(c3ccccc3)=NC23CCC(C)CC3)cc1Cl (configuration not stated) |  | inconclusive: 50.1 µM [inhibitor, partial curve, poor fit]
COC(=O)C(C#N)c1nc2ccccc2nc1NC1CC1 (configuration not stated) | inactive: 12.2% | 
CCSc1nnc(-c2nn(C)c3c2CN(S(=O)(=O)c2ccc4c(c2)CCC4)CC3)n1C |  | inconclusive: 56.2 µM [inhibitor, partial curve, poor fit]
C#CC(CC)(CC)NC(=O)Cc1cccc(C)c1 | inactive: -2.58% | 
CC1CCc2nc3ncn(Cc4cccc(F)c4)c(=O)c3cc2C1 (configuration not stated) |  | inconclusive: 39.8 µM [inhibitor, full curve, poor fit]
Cc1cc(C)cc(OCC(=O)N(Cc2ccco2)Cc2ccccc2Cl)c1 |  | inconclusive: 56.2 µM [inhibitor, partial curve, poor fit]
Cc1ccc(-c2nc(-c3cccs3)c(-c3cccs3)[nH]2)cc1 | inactive: 6.62% | 
COc1ccc(OC)c(NC(=O)N2CCC3(CC2)Oc2ccccc2C(=O)N3Cc2ccccc2F)c1 |  | inconclusive: 14.1 µM [inhibitor, full curve, poor fit]
COc1ccc(-c2noc(CC(=O)N(C)c3cc(Cl)c(OC)cc3OC)n2)cc1 |  | inconclusive: 28.2 µM [inhibitor, full curve]

Compound | activity change, negative = inhibition | Potency
O=c1nc2n(-c3cccc(Cl)c3)c3cccc(Cl)c3cc-2c(=O)[nH]1 |  | inconclusive: 56.2 µM [inhibitor, partial curve, poor fit]
COc1ccc(N2CCN(C(=O)c3cn(C)c4ccc(S(=O)(=O)N5CCOCC5)cc4c3=O)CC2)cc1 |  | inconclusive: 35.5 µM [inhibitor, partial curve, poor fit]
CC(=O)NC12CC3CC(C1)CC(C(=O)NCCSCc1ccc(Cl)cc1)(C3)C2 | inactive: -1.63% | 
CC(=O)NCc1ccc(-c2csc(Nc3cccc(C(F)(F)F)c3)n2)o1 | inactive: 1.89% | 
CCOC(=O)c1cc2cc(C(F)(F)F)ccc2[nH]1 | inactive: -0.668% | 
COc1cc(OC)cc(-c2nnc(SCC(=O)N3CCC(C)CC3)o2)c1 |  | inconclusive: 35.5 µM [inhibitor, partial curve, poor fit]
CC(C)(C)c1ccc(OCC(=O)N(Cc2ccco2)Cc2ccccc2F)cc1 |  | inconclusive: 31.6 µM [inhibitor, full curve, poor fit]
CCCC(=O)Oc1c(Sc2ccc(Cl)cc2)c(C)nn1-c1ccccc1 |  | inconclusive: 3.55 µM [inhibitor, full curve, poor fit]
Cc1ccc(NC(=O)C(Cc2ccccc2)NS(=O)(=O)c2ccc3c(c2)c(=O)n(C)c(=O)n3C)cc1 (configuration not stated) |  | inconclusive: 50.1 µM [inhibitor, partial curve, poor fit]
Cc1ccc(CN2C(=O)c3ccccc3S(=O)(=O)c3ccc(C(=O)OCC4CCCO4)cc32)cc1 (configuration not stated) |  | inconclusive: 100 µM [inhibitor, single point]
CC(C)(C)c1ccc(OCCSc2nc(-c3cccs3)nc3cc(=O)[nH]n23)cc1 |  | inconclusive: 35.5 µM [inhibitor, partial curve, poor fit]
CC(=O)Nc1ccc(-n2cc3c(c2-c2ccc(C)cc2)c(=O)n(C)c(=O)n3C)cc1 |  | inconclusive: 56.2 µM [inhibitor, partial curve, poor fit]
Cc1ccc(C(O)CNC(=O)Nc2ccccc2)cc1 (configuration not stated) | inactive: -4.97% | 
COc1cc(OC)c(C(=O)OCc2ccccc2Br)cc1OC | inactive: 3.4% | 
CCC(=O)Nc1ccccc1-c1nc2ccccc2n(C(CC)C(=O)Nc2cccc(C(C)=O)c2)c1=O (configuration not stated) |  | inconclusive: 25.1 µM [inhibitor, full curve, poor fit]
Cc1ccc(C)c(S(=O)(=O)c2nnn3c2nc(N2CCCC2)c2sccc23)c1 |  | inconclusive: 12.6 µM [inhibitor, full curve, poor fit]
CNCc1ccc(OCc2ccccc2Cl)c(OC)c1 | inactive: -3.28% | 
COc1cccc(C2CC(=O)Nc3ccsc32)c1OCc1ccc(Cl)cc1 (configuration not stated) |  | inconclusive: 63.1 µM [inhibitor, partial curve, poor fit]
Cc1ccc(C)c(N2CCN(C(=O)c3cc(S(=O)(=O)N4CCCCC4)cn3C)CC2)c1 |  | inconclusive: 11.2 µM [inhibitor, full curve, poor fit]
Cc1cccc(N2CCN(CC(=O)Nc3nncs3)CC2)c1C | inactive: 1.07% | 
CCOc1ccc(CCNC(=O)CCc2cn(Cc3ccc(C)cc3)c3ccccc23)cc1 |  | inconclusive: 100 µM [inhibitor, partial curve, poor fit]

— PubChem BioAssay AID1347428 (National Center for Advancing Translational Sciences (NCATS), 2020)
